{"source": "paper PMC10368634", "binders": {"B1": {"name": "GSTP1 (glutathione S-transferase pi), endogenous, P09211 1-210 (enzyme)", "chain": "MPPYTVVYFPVRGRCAALRMLLADQGQSWKEEVVTVETWQEGSLKASCLYGQLPKFQDGDLTLYQSNTILRHLGRTLGLYGKDQQEAALVDMVNDGVEDLRCKYISLIYTNYEAGKDDYVKALPGQLKPFETLLSQNQGGKTFIVGDQISFADYNLLDLLLIHEVLAPGCLDAFPLLSAYVGRLSARPKLKAFLASPEYVNLPINGNGKQ"}}, "target": "GSTP1 (glutathione S-transferase pi), endogenous (human (endogenous in MCF-7, HeLa, HepG2 and human breast tissue)), P09211", "test": "native gel or EMSA + cross-linking; Native-page and cross-linking with 0.03125% glutaraldehyde of GSTP1 bound to lactate (Fig. S1E, S1F)", "details": "remark: other sources report otherwise", "note": "These are yes or no findings as the source states them, for the method shown. Binding seen in cells or lysates may run through a third protein. Some results given as binding are weak or reduced against the parent protein; the word gives no strength. Where a sequence is shown, tags or fusion partners need not be part of it."}
{"binder": "B1", "values": [{"measurement": "binding", "value": "binds"}]}
